# Experimental data as given in the supplement of paper PMC8728848.
# This is one part of the list.
# Key:
# Test in all cases: glycan array binding signal (z-score within array); higher = stronger binding
# Conditions in all cases: glycan notation: IUPAC condensed, linker removed
# Fuc(a1-2)Gal = molecular target: Fuc(a1-2)Gal
# Summary of the method: (§1)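 The binding signal is a Z-score computed within each array. Data were drawn from 3228 arrays in the Consortium for Functional Glycomics database, restricted to those with a known protein sequence. Scores were averaged over arrays of the same protein sequence at different concentrations or buffers, and over linkers, and negative values can be taken as non-binding.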
# Fuc(a1-2)Gal(b1-3)GalNAc = molecular target: Fuc(a1-2)Gal(b1-3)GalNAc
# Summary of the method: as §1
# [1] = molecular target: Fuc(a1-2)Gal(b1-3)GalNAc(a1-3)[Fuc(a1-2)]Gal(b1-4)Glc
# Summary of the method: as §1
# [2] = molecular target: Fuc(a1-2)Gal(b1-3)GalNAc(a1-3)[Fuc(a1-2)]Gal(b1-4)GlcNAc
# Summary of the method: as §1
# [3] = molecular target: Fuc(a1-2)Gal(b1-3)GalNAc(b1-3)Gal
# Summary of the method: as §1
# [4] = molecular target: Fuc(a1-2)Gal(b1-3)GalNAc(b1-3)Gal(a1-4)Gal(b1-4)Glc
# Summary of the method: as §1
# [5] = molecular target: Fuc(a1-2)Gal(b1-3)GalNAc(b1-4)[Neu5Ac(a2-3)]Gal(b1-4)Glc
# Summary of the method: as §1
# Fuc(a1-2)Gal(b1-3)GlcNAc = molecular target: Fuc(a1-2)Gal(b1-3)GlcNAc
# Summary of the method: as §1
# [6] = molecular target: Fuc(a1-2)Gal(b1-3)GlcNAc(b1-2)Man(a1-3)[Fuc(a1-2)Gal(b1-3)GlcNAc(b1-2)Man(a1-6)]Man(b1-4)GlcNAc(b1-4)GlcNAc
# Summary of the method: as §1
# [7] = molecular target: Fuc(a1-2)Gal(b1-3)GlcNAc(b1-2)Man(a1-3)[Fuc(a1-2)Gal(b1-3)GlcNAc(b1-2)Man(a1-6)]Man(b1-4)GlcNAc(b1-4)[Fuc(a1-6)]GlcNAc
# Summary of the method: as §1
# [8] = molecular target: Fuc(a1-2)Gal(b1-3)GlcNAc(b1-3)Gal(b1-4)Glc
# Summary of the method: as §1
# [9] = molecular target: Fuc(a1-2)Gal(b1-3)GlcNAc(b1-3)GalNAc
# Summary of the method: as §1
# [10] = molecular target: Fuc(a1-2)Gal(b1-3)GlcNAc(b1-3)[Fuc(a1-2)Gal(b1-3)GlcNAc(b1-6)]GalNAc
# Summary of the method: as §1
# [11] = molecular target: Fuc(a1-2)Gal(b1-3)GlcNAc(b1-3)[Gal(b1-4)GlcNAc(b1-6)]Gal(b1-4)Glc
# Summary of the method: as §1
# [12] = molecular target: Fuc(a1-2)Gal(b1-3)GlcNAc(b1-3)[Neu5Ac(a2-6)Gal(b1-4)GlcNAc(b1-6)]Gal(b1-4)Glc
# Summary of the method: as §1
# [13] = molecular target: Fuc(a1-2)Gal(b1-3)GlcNAc6S
# Summary of the method: as §1
# [14] = molecular target: Fuc(a1-2)Gal(b1-3)[Fuc(a1-4)]GlcNAc
# Summary of the method: as §1
# [15] = molecular target: Fuc(a1-2)Gal(b1-3)[Fuc(a1-4)]GlcNAc(b1-2)Man(a1-3)[Fuc(a1-2)Gal(b1-3)[Fuc(a1-4)]GlcNAc(b1-2)Man(a1-3)]Man(b1-4)GlcNAc(b1-4)GlcNAc
# Summary of the method: as §1
# [16] = molecular target: Fuc(a1-2)Gal(b1-3)[Fuc(a1-4)]GlcNAc(b1-2)Man(a1-3)[Fuc(a1-2)Gal(b1-3)[Fuc(a1-4)]GlcNAc(b1-2)Man(a1-6)]Man(b1-4)GlcNAc(b1-4)[Fuc(a1-6)]GlcNAc(b1-4)[Fuc(a1-6)]GlcNAc
# Summary of the method: as §1
# [17] = molecular target: Fuc(a1-2)Gal(b1-3)[Fuc(a1-4)]GlcNAc(b1-3)[Fuc(a1-3)[Gal(b1-4)]GlcNAc(b1-6)]Gal(b1-4)Glc
# Summary of the method: as §1
# [18] = molecular target: Fuc(a1-2)Gal(b1-3)[Fuc(a1-4)]GlcNAc(b1-3)[Gal(b1-4)GlcNAc(b1-6)]Gal(b1-4)Glc
# Summary of the method: as §1
# Fuc(a1-2)Gal(b1-4)Glc = molecular target: Fuc(a1-2)Gal(b1-4)Glc
# Summary of the method: as §1
# Fuc(a1-2)Gal(b1-4)Glc6S = molecular target: Fuc(a1-2)Gal(b1-4)Glc6S
# Summary of the method: as §1
# Fuc(a1-2)Gal(b1-4)GlcNAc = molecular target: Fuc(a1-2)Gal(b1-4)GlcNAc
# Summary of the method: as §1
# [19] = molecular target: Fuc(a1-2)Gal(b1-4)GlcNAc(b1-2)Man
# Summary of the method: as §1
# [20] = molecular target: Fuc(a1-2)Gal(b1-4)GlcNAc(b1-2)Man(a1-3)[Fuc(a1-2)Gal(b1-4)GlcNAc(b1-2)Man(a1-6)]Man(b1-4)GlcNAc(b1-4)GlcNAc
# Summary of the method: as §1
# [21] = molecular target: Fuc(a1-2)Gal(b1-4)GlcNAc(b1-2)Man(a1-3)[Fuc(a1-2)Gal(b1-4)GlcNAc(b1-2)Man(a1-6)]Man(b1-4)GlcNAc(b1-4)[Fuc(a1-6)]GlcNAc
# Summary of the method: as §1
# [22] = molecular target: Fuc(a1-2)Gal(b1-4)GlcNAc(b1-2)[Fuc(a1-2)Gal(b1-4)GlcNAc(b1-4)]Man(a1-3)[Fuc(a1-2)Gal(b1-4)GlcNAc(b1-2)Man(a1-6)]Man(b1-4)GlcNAc(b1-4)GlcNAc
# Summary of the method: as §1
# [23] = molecular target: Fuc(a1-2)Gal(b1-4)GlcNAc(b1-3)Gal(b1-4)GlcNAc
# Summary of the method: as §1
# [24] = molecular target: Fuc(a1-2)Gal(b1-4)GlcNAc(b1-3)Gal(b1-4)GlcNAc(b1-2)Man(a1-3)[Fuc(a1-2)Gal(b1-4)GlcNAc(b1-3)Gal(b1-4)GlcNAc(b1-2)Man(a1-6)]Man(b1-4)GlcNAc(b1-4)GlcNAc
# Summary of the method: as §1
# [25] = molecular target: Fuc(a1-2)Gal(b1-4)GlcNAc(b1-3)Gal(b1-4)GlcNAc(b1-3)Gal(b1-4)GlcNAc
# Summary of the method: as §1
# [26] = molecular target: Fuc(a1-2)Gal(b1-4)GlcNAc(b1-3)GalNAc
# Summary of the method: as §1
# [27] = molecular target: Fuc(a1-2)Gal(b1-4)GlcNAc(b1-3)[Fuc(a1-2)Gal(b1-4)GlcNAc(b1-6)]GalNAc
# Summary of the method: as §1
# [28] = molecular target: Fuc(a1-2)Gal(b1-4)GlcNAc(b1-3)[Fuc(a1-3)[Gal(b1-4)]GlcNAc(b1-6)]Gal(b1-4)Glc
# Summary of the method: as §1
# [29] = molecular target: Fuc(a1-2)Gal(b1-4)GlcNAc(b1-6)GalNAc
# Summary of the method: as §1
# [30] = molecular target: Fuc(a1-2)Gal(b1-4)GlcNAc6S
# Summary of the method: as §1
# [31] = molecular target: Fuc(a1-2)Gal(b1-4)[Fuc(a1-3)]GlcNAc
# Summary of the method: as §1
binder,measurement,setting,value
PX15618A-bth-503-24-503 (Bacteroides thetaiotaomicron) (protein) NKSEDKLSGDDFWAQGNETNAEAFLLSIYNSFRNATMSQRPFLTYSGDMRCAPITAYSTGDKYVAYLANNDMGELRNTYPDDARGGLIMQWDVFYTAIQDANILLAEIDKVPGMDELKRSRFKAEAIFMRSLSYFFIVRAFGDVPYYTNAYNEAPLPRTNMVIVLQNCLADLQPLLDDDPGAEVLPWSYSSYSSKGIRASRGSVIALMMHINLWLVQFDAQNKEQYYRNVVSLGEELERNNGAYSLLDINRSSVIFAGGSDEGLFEIAQNINFNEIFMMNAKFSDNVSYSCLNKSMPLFCYSGDYLMTLFPMYEDDARKELWFDEKIYSTSVSSSAPKEIKKFWNIDTYGNGTITSNSGNQIVFRYAGALLLYAEALAALGTNDTKACELLNRVRNRAHASEINTSGSELMDAIFWERCRELIGEGHYYYDLVRTGKVYNRNYCMNPMTRTNFNVGAWTWPIHRNALKNNTQIGLNLFWE,glycan array binding signal (z-score),Fuc(a1-2)Gal,-0.399
same,glycan array binding signal (z-score),Fuc(a1-2)Gal(b1-3)GalNAc,-0.582
same,glycan array binding signal (z-score),[1],-0.315
same,glycan array binding signal (z-score),[2],-0.737
same,glycan array binding signal (z-score),[3],-0.651
same,glycan array binding signal (z-score),[4],-0.425
same,glycan array binding signal (z-score),[5],-0.169
same,glycan array binding signal (z-score),Fuc(a1-2)Gal(b1-3)GlcNAc,-0.618
same,glycan array binding signal (z-score),[6],1.01
same,glycan array binding signal (z-score),[7],-0.198
same,glycan array binding signal (z-score),[8],-0.23
same,glycan array binding signal (z-score),[9],0.317
same,glycan array binding signal (z-score),[10],0.662
same,glycan array binding signal (z-score),[11],-0.299
same,glycan array binding signal (z-score),[12],-0.016
same,glycan array binding signal (z-score),[13],-0.001
same,glycan array binding signal (z-score),[14],-0.295
same,glycan array binding signal (z-score),[15],-0.043
same,glycan array binding signal (z-score),[16],0.712
same,glycan array binding signal (z-score),[17],-0.326
same,glycan array binding signal (z-score),[18],-0.438
same,glycan array binding signal (z-score),Fuc(a1-2)Gal(b1-4)Glc,-0.293
same,glycan array binding signal (z-score),Fuc(a1-2)Gal(b1-4)Glc6S,-0.055
same,glycan array binding signal (z-score),Fuc(a1-2)Gal(b1-4)GlcNAc,-0.574
same,glycan array binding signal (z-score),[19],-0.103
same,glycan array binding signal (z-score),[20],2.2
same,glycan array binding signal (z-score),[21],-0.648
same,glycan array binding signal (z-score),[22],-0.077
same,glycan array binding signal (z-score),[23],-0.297
same,glycan array binding signal (z-score),[24],-0.144
same,glycan array binding signal (z-score),[25],-0.13
same,glycan array binding signal (z-score),[26],-0.013
same,glycan array binding signal (z-score),[27],-0.488
same,glycan array binding signal (z-score),[28],-0.143
same,glycan array binding signal (z-score),[29],0.147
same,glycan array binding signal (z-score),[30],-0.172
same,glycan array binding signal (z-score),[31],-0.233
